Laboratory results reported in patent US20260286305A1, “TREATMENT OF LEUKEMIA WITH ENGINEERED IMMUNE CHECKPOINT INACTIVATED CAR-NK CELLS OR CAR T-CELLS” (ALBERT-LUDWIGS-UNIVERSITÄT FREIBURG KÖRPERSCHAFT DES …, priority 2023, published 2026).

Key:
[1] = test system: CLEC12A expression in OCI-AML2 cells; assay: Flow cytometry-based CLEC12A expression of OCI-AML2 cells cultured with AZA; format: cell-based, human; conditions: exposure to AZA for 4 or 8 days; 1 μM AZA in culture
From the text: Based on these findings, in order to overcome the disadvantages of using CD123 as a target as explained herein, the inventors defined CLEC12A, CD33, CD123, B7-H6, CD19 or BCMA, and in particular CLEC12A as highly promising target antigen due to its expression on more than 90% of leukemic blasts from AML patients as well as on OCI-AML2 and MOLM-13 cells (FIG. 8).
(A) Flow cytometry-based CLEC12A-expression analysis of different AML cell lines. (B) AZA-induced change of CLEC12A expression in OCI-AML2 cells. The fold change compares the CLE12A expression in the absence (day 0) versus presence (for 1, 4 or 8 days) of 1 μM azacytidine (AZA) in culture.

[2] = test system: CD123 expression on leukemia cells; conditions: upon AZA treatment; cited from earlier work
[3] = test system: MOLM-13 leukemia cells; assay: MOLM-13 xenografted mouse model, CD123-CAR-T cells with AZA; conditions: MOLM-13 engrafted mice, BLI and survival (FIG. 7)

Compound: Nc1ncn([C@@H]2O[C@H](CO)[C@@H](O)[C@H]2O)c(=O)n1 [AZA, azacitidine]
- CLEC12A expression [1]: significant CLEC12A upregulation
- CD123 expression on leukemia cells [2]: increases
- anti-leukemic effect of CD123-CAR-T cells [3]: enhances the anti-leukemic effect
